# The other results are listed elsewhere or left out. The list includes weakly bound sequences.
# Molecular target: MaxL homodimer (UniProt P61244)
# Experiment: universal protein-binding microarray (PBM)
# Settings: PBS-based mixture, 10 nM His-tagged protein dimer, 2% milk, 200 ng/uL BSA, 50 ng/uL salmon testes DNA, 0.02% TX-100; detection with Alexa 488 anti-His …; high values mean tight binding; most listed sequences are background and not binding sites; double strand, one strand shown
# Sequence of UniProt P61244 (P61244 whole entry): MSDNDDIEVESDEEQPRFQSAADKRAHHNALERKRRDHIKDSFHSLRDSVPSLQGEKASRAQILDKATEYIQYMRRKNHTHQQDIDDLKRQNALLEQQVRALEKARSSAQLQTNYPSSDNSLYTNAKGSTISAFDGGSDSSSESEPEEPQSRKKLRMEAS
row,Sequence,binding signal (normalized occupancy)
1,CCAAGACC,0.0699
2,CTCCTACC,0.0735
3,ATTAGTAC,0.0786
4,AGTCGCAA,0.0744
5,AAATAATG,0.0782
6,AAGCGAAA,0.0696
7,ACACAAGT,0.0788
8,TATCCTCA,0.0868
9,ACGTTGAG,0.0783
10,AGTTTTGC,0.0702
11,ATGCTACG,0.086
12,TAACTCGA,0.0775
13,GAAATTAA,0.0782
14,ACCATGAT,0.084
15,CGTCCAAC,0.0717
16,AAACCCAT,0.0794
17,CATACCTA,0.0793
18,AAGTGAAA,0.0707
19,AAACCATG,0.0886
20,ACGACGAG,0.0759
21,GCATGTAA,0.0836
22,GTGGTCTA,0.0734
23,AGCTCTTG,0.071
24,ATCTTCTC,0.0795
25,CGCCGGGC,0.0692

row,Sequence,binding signal (normalized occupancy)
1,GATGGCAA,0.0752
2,CGCGTAGA,0.072
3,GGAAGTCC,0.0697
4,ATCATCAT,0.0851
5,CACGAAGA,0.0779
6,TGTAACAA,0.0771
7,ATGAGCCG,0.076
8,AGTCACTG,0.0725
9,CCTGTCGC,0.0739
10,GAACTCCA,0.0784
11,CACACGTA,0.0925
12,AAAGATGA,0.077
13,CCAAACCC,0.0843
14,GGCCAACA,0.076
15,GCCCTCGA,0.0765
16,ACGGGAGA,0.0709
17,AATAAGCT,0.071
18,GAGTGCAA,0.0744
19,AAGGCCTG,0.0683
20,AATATGCG,0.0761
21,CCGCTGAA,0.0661
22,CTCGGAGC,0.0683
23,AAATTCAT,0.0768
24,GACGCTTA,0.0768
25,GGAGGCTA,0.0697

row,Sequence,binding signal (normalized occupancy)
1,CAAGGGGA,0.0766
2,ATTTGGTA,0.0708
3,CCTGGACC,0.0723
4,CTAAGTAA,0.0727
5,ACTTGCGA,0.0744
6,CTTGATCC,0.0766
7,CAAGGAAA,0.0736
8,AATGTTAC,0.0779
9,ACGTCCTG,0.0703
10,GTCGTGAA,0.0758
11,TCCGTCAA,0.0696
12,CGCCAAAC,0.0725
13,CTCATATC,0.0798
14,CACTAAAA,0.0821
15,AAACAAGA,0.0748
16,CGAAACAC,0.0785
17,CAAGGGAG,0.0718
18,AAACTTAA,0.0725
19,AAGTCCCG,0.0706
20,CTCGGAAG,0.0704
21,GCGGCCGA,0.0676
22,GAGAAGCC,0.0675
23,ATCCAGCA,0.079
24,CTGTAACC,0.0725
25,CGACCCCG,0.0694

row,Sequence,binding signal (normalized occupancy)
1,AAGACCCA,0.0693
2,TCCGGCAA,0.0695
3,CATCAGCG,0.0771
4,GAACACAA,0.0743
5,CCTGATTC,0.0762
6,AAACGCCC,0.0747
7,AAGAACGA,0.0709
8,CCATTTTA,0.0772
9,AGTTCCAG,0.0709
10,GATAAACA,0.0718
11,CTGTTCGA,0.0715
12,TACATGCA,0.0895
13,TATTGGGA,0.0786
14,AAGGGGTG,0.0813
15,CGTGGATA,0.0917
16,CGCGATAG,0.0701
17,AAGATGTG,0.0819
18,TATACATA,0.0935
19,ACTAGGTA,0.0763
20,CGAATTTA,0.0739
21,CCTTGCAC,0.0755
22,CCACCTCA,0.0833
23,ATGTACGA,0.0873
24,TTTCCAAA,0.077
25,CATGCACG,0.101

row,Sequence,binding signal (normalized occupancy)
1,AAATCGTA,0.0748
2,CGTCAAGC,0.0703
3,GGACGGGA,0.0731
4,ACGCTCAC,0.08
5,GGGTTAAA,0.0779
6,ACAAGTCA,0.0774
7,AATAGTCT,0.0758
8,GGGTGTGA,0.0831
9,ATGGCTTG,0.079
10,AGGTGAAT,0.0784
11,CGGGGCCA,0.0685
12,CACTATAC,0.0789
13,CCACGCCG,0.0985
14,ACATCCGT,0.0774
15,ACGGGGCT,0.0777
16,AATGGCCC,0.0752
17,ATATATAT,0.0877
18,TGAGAACA,0.0777
19,CGGAGGGC,0.0668
20,TCCCACCA,0.0772
21,TAGTCGAA,0.0737
22,AACAGCTT,0.0725
23,CCTCAGAC,0.0778
24,GCAGGGCA,0.0689
25,AATGGTAT,0.0816

row,Sequence,binding signal (normalized occupancy)
1,CACTCGCG,0.0788
2,CTCAAGAC,0.0714
3,AGTATAAA,0.0802
4,ATGTCCTC,0.0844
5,AACGTAGG,0.0742
6,ATTTGTTA,0.0764
7,CAACACTC,0.0756
8,CCAACGTC,0.0727
9,GTCTAATA,0.0809
10,ATTCACCG,0.0732
11,ACTATAGT,0.0757
12,CTAGCGTA,0.0708
13,ACGACGCG,0.0739
14,AAGTCGCA,0.0768
15,GTAACTGA,0.0702
16,ACAACCCA,0.0762
17,AAGGAGAA,0.0761
18,CTTGGCCA,0.0734
19,CTCGTCAG,0.0717
20,AGACGACG,0.0782
21,GCAATCCC,0.0713
22,ACCCTAGC,0.0745
23,AGTGGCGG,0.0685
24,CGGGACCA,0.0709
25,CGTTGGTC,0.0765

row,Sequence,binding signal (normalized occupancy)
1,CAACGCCC,0.078
2,GTCTGTTA,0.0766
3,GACCACTC,0.0788
4,CTTTCTTA,0.0794
5,ACTAAACT,0.0746
6,GGACCGAA,0.0678
7,GCATCCAA,0.0768
8,CACCCTCG,0.0767
9,AAAATTCG,0.0731
10,GTCGCGTA,0.0716
11,GGGTTGTA,0.0853
12,CATATAAA,0.0803
13,CTGCTCAA,0.0738
14,ACTTGCAT,0.0774
15,GGACGGCA,0.0718
16,TCTGTCAA,0.0727
17,AGTTCACC,0.0724
18,AGAGTGGG,0.0749
19,GCGATCGC,0.0825
20,TACAATGA,0.0869
21,AATGCCAC,0.0851
22,AGGTCCAA,0.0786

# Reference: publication PMC4242493
